Source: patent US20160122793

Biological target: T1, RL27_EVLFQGP_GLP-1(7-37,K34R)
T1 chain: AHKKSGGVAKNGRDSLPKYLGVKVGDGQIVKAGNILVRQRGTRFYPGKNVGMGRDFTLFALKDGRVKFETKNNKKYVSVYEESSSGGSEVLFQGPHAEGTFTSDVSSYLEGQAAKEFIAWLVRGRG

B1: Protease 20986, His-des182HRV14-XaaProDAP (Q241E, G242T) (protein)
chain: MHHHHHHGGSSGSGSGSGSGS[no letters for about 200 residues]GSGGSGGSGSMRFNHFSIVDKNFDEQLAELDQLGFRWSVFWDEKKILKDFLIQSPTDMTVLQANTELDVIEFLKSSIELDWEIFWNITLQLLDFVPNFDFEIGKATEFAKKLNLPQRDVEMTTETIISAFYYLLCSRRKSGMILVEHWVSEGLLPLDNHYHFFNDKSLATFDSSLLEREVVWVESPVDTEQKGKNDLIKIQIIRPKSTEKLPVVITASPYHLGINEKANDLALHEMNVDLEKKDSHKIHVETKLPQKRPSETKELPIVDKAPYRFTHGWTYSLNDYFLTRGFASIYVAGVGTRGSNGFQTSGDYQQIYSMTAVIDWLNGRTRAYTSRKKTHEIKATWANGKVAMTGKSYLGTMAYGAATTGVDGLEVILAEAGISSWYNYYRENGLVRSPGGFPGEDLDVLAALTYSRNLDGADYLKGNDEYEKRLAEMTTALDRKSGDYNQFWHDRNYLINSDQVRADVLIVHGLQDWNVTPEQAYNFWQALPEGHAKHAFLHRGAHIYMNSWQSIDFSETINAYFSAKLLDRDLNLNLPPVILQENSKEQVWSAVSKFGGDDQLKLPLGKTAVSFAQFDNHYDDESFKKYSKDFNVFKKDLFENKANEAVIDLELPSELTINGPIELEIRLKLNDSKGLLSAQILDFGPKKRLEDKARVKDFKVLDRGRNFMLDDLVELPLVESPYQLVTKGFTNLQNKDLLTVSDLKADEWFTLKFELQPTIYHLEKADKLRVILYSTDFEHTVRDNRKVTYEIDLSQSKLIIPIESVKKGSS
Question: What does the source list for B1?
Answer: cleavage of fusion protein substrate, LC-MS: all able to fully process the RL27_EVLFQGP_GLP-1 in to mature GLP-1(7-37,K34R); cleavage of fusion protein substrate, LC-MS, 1:500, 4 C overnight: optimal cleavage conditions using 1:500 enzyme to substrate ratio with overnight incubation at 4° C., without detectable contributions of fragments derived from unspecific or incomplete processing
